Reference: PubChem BioAssay AID651820 (National Center for Advancing Translational Sciences (NCATS), 2012)
About 12,000 (3.5%) of roughly 340,000 compounds were called active. The shares of active, inactive and inconclusive entries below differ from those in the screen. Calls follow the shape of the dose curve; as a rule, active = well fitted inhibition curve with a large enough effect; inconclusive = small, poorly fitted or top-dose-only effect, or another doubt; inactive = no such curve, though single readings can be large or run the other way. No potency is given beside an inconclusive call; the fits are too rough.

Experiment: qHTS Assay for Inhibitors of Hepatitis C Virus (HCV)
Settings: Huh7.5.1 HCVcc-Cre (HCVcc is cell-culture hepatitis C virus) infection, luciferase reporter, 44 h; activity change, negative = inhibition: at 41.8 µM (top of the series)
Method in brief: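 A cell-based infection assay in which seeded cells (1,000 per well) receive test compound after 4 h, are inoculated with HCVcc-Cre at approximately 0.5 moi, and are incubated 44 h before luminescence detection.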
% is scaled to controls: 0 for no effect and ±100 for the full control effect; potency is read from the fitted curve at half-maximal effect; tags tell the direction and shape of the fitted curve.

Row | Structure (SMILES) | activity change, negative = inhibition | Potency
1 | O=C(CNC(=O)c1ccccc1Cl)OCC(=O)N1CCc2ccccc21 | inactive: 13.4% | –
2 | COC(=O)C[C@H](NC(=O)Cn1cnc2c(SC)nc(N)nc21)C(=O)OC | – | inconclusive [inhibitor, single point]
3 | O=C(c1ccncc1)N1CCc2ccccc2C1 | inactive: 22.6% | –
4 | Cc1ccc(C(=O)Nc2nc3ccc(S(C)(=O)=O)cc3s2)cc1C | – | inconclusive [inhibitor, partial curve]
5 | C(=N\Nc1nc2ccccc2[nH]1)/c1ccc2ncccc2c1 | – | inconclusive [inhibitor, partial curve]
6 | Cc1cc(C(=O)COC(=O)C2=COCCO2)c(C)n1-c1ccccc1 | – | inconclusive [inhibitor, partial curve]
7 | COc1ccc(CCNC(=O)c2ccc(CN3CCOCC3)cc2)cc1 | – | inconclusive [inhibitor, full curve, poor fit]
8 | COc1ccccc1C(CCNS(=O)(=O)c1ccc(C)cc1)c1ccco1 (stereo not given) | – | inconclusive [inhibitor, single point]
9 | CCn1c(SCC(=O)Nc2ccc3c(c2)c2ccccc2n3CC)nnc1-c1ccco1 | – | inconclusive [inhibitor, single point]
10 | CCN(CC)CCNC(=O)c1sc2nc(-c3ccccc3)cn2c1C | – | inconclusive [inhibitor, single point]
11 | O=C(Nc1nccs1)C1CCCN1S(=O)(=O)c1ccc(Cl)cc1 (stereo not given) | inactive: 3.76% | –
12 | CCCc1nc2ccccc2n1CCOC | inactive: 7.52% | –
13 | Cc1ccc2cc(CN(C(=O)c3ccco3)c3ccccc3C)c(=O)[nH]c2c1 | – | inconclusive [inhibitor, partial curve, poor fit]
14 | COc1ccc(CCNC(=O)CSc2nc(C)nc3c2c(=O)n(C)c(=O)n3C)cc1OC | – | inconclusive [inhibitor, partial curve]
15 | CCOC(=O)CN(C(=O)COc1nc(-c2ccccc2)cc(C)c1C#N)c1cccc(OC)c1 | – | inconclusive [inhibitor, partial curve]
16 | O=C(NCc1cccc(Cl)c1)c1ccc2nc(N3CCOCC3)sc2c1 | – | inconclusive [inhibitor, single point]
17 | Cc1ccc(NC(=O)CSc2nnc(-c3cnccn3)n2Cc2ccco2)cc1 | inactive: -21.6% | –
18 | COc1ccc([C@H]2CC(=O)C=C(c3ccc4ncccc4c3)C2)cc1OC | – | inconclusive [inhibitor, single point]
19 | O=C1c2cccnc2C(O)N1Cc1ccccc1 (stereo not given) | – | inconclusive [inhibitor, partial curve, poor fit]
20 | C[C@H]1NS(=O)(=O)c2ccc(Br)cc2O[C@H]1c1ccccc1 | inactive: 1.19% | –
21 | COCCCN(C(=O)c1ccccc1F)c1nc(-c2ccc(OC)cc2)cs1 | – | active: 10 µM
22 | Cc1cccnc1NC(=O)COc1ccc2c(c1)CCC2 | inconclusive: -79% [inhibitor] | –
23 | Oc1ccc(N2CCN(c3nc(-c4cccs4)nc4ccccc34)CC2)cc1 | – | inconclusive [inhibitor, partial curve]
24 | CC(C)(C)c1ccc(/C=C2\Oc3cc(O)ccc3C2=O)cc1 | – | inconclusive [inhibitor, partial curve]

Row | Structure (SMILES) | activity change, negative = inhibition | Potency
25 | COc1cc(OC)c(NC(=O)Nc2ccc(OC)c(OC)c2)cc1Cl | – | active: 2.51 µM
26 | COc1cc2nc(CN3CCOCC3)n(CC(=O)NCC(F)(F)F)c(=O)c2cc1OC | inactive: 11% | –
27 | O=C(CCS(=O)(=O)c1cc(Br)cc2c1N(C(=O)C1CC1)CC2)NCc1ccco1 | – | inconclusive [inhibitor, single point]
28 | Cc1nccn1CC1CCc2c(c3ccccc3n2C)C1=O (stereo not given) | – | inconclusive [inhibitor, partial curve, poor fit]
29 | O=C1Nc2ccc(Br)cc2/C1=C/C1CC=CCC1 (stereo not given) | – | inconclusive [inhibitor, single point]
30 | Cc1cc(C)cc(OCC(=O)Nc2ccc(N3CCOCC3)cc2N2CCOCC2)c1 | – | inconclusive [inhibitor, single point]
31 | CC(=O)N1CCc2cc(S(=O)(=O)NC3CCCc4ccccc43)ccc21 (stereo not given) | – | inconclusive [inhibitor, partial curve]
32 | CN(Cc1ccccc1)c1ccc(C(CC(N)=O)NC(=O)Cc2cccc3ccccc23)cc1[N+](=O)[O-] (stereo not given) | – | inconclusive [inhibitor, single point]
33 | O=C(NCC(=O)N1CCN(S(=O)(=O)/C=C/c2ccccc2)CC1)c1ccc(Cl)cc1 | – | inconclusive [inhibitor, single point]
34 | O=C(CCc1c[nH]c2ccccc12)N1CCCC1 | inactive: -27.5% | –
35 | O=[N+]([O-])c1cc(S(=O)(=O)Nc2ccccc2)ccc1Nc1ccccc1 | – | inconclusive [inhibitor, partial curve]
36 | CCCn1c(=O)n(C)c(=O)c2c(SCC(=O)NCC(c3ccccc3)N(C)C)nc(CC(C)C)nc21 (stereo not given) | – | inconclusive [inhibitor, single point]
37 | CN(Cc1nc(-c2ccc(Cl)cc2)no1)C(=O)CCN1C(=O)[C@H]2CC=CC[C@H]2C1=O | – | inconclusive [inhibitor, partial curve]
38 | CN(CCc1ccccc1)C(=O)c1cccc(NC(=O)Cc2cccc(NC(=O)C3CCCN(C(=O)C4CC4)C3)c2)c1 (stereo not given) | inactive: -22.8% | –
39 | COC(=O)c1ccc(NC(=O)c2ccc3nsnc3c2)cc1 | – | inconclusive [inhibitor, single point]
40 | CCSc1nc2cc(C(=O)OC)ccc2c(=O)n1CC | – | inconclusive [inhibitor, single point]
41 | CC(Oc1ccc(F)cc1)C(=O)Nc1cc(S(=O)(=O)N2CCCCC2)ccc1N1CCOCC1 (stereo not given) | – | inconclusive [inhibitor, partial curve, poor fit]
42 | CCOc1ccc(NC(=O)CN(C)C(=O)COc2cccc3c2OC(C)(C)C3)cc1OCC | – | inconclusive [inhibitor, full curve]
43 | O=C1[C@@H](Oc2ccccc2)[C@@H](c2cccnc2)N1c1ccccc1 | – | active: 35.5 µM
44 | CC1(C)Cc2cccc(OCC(=O)Nc3cccnc3)c2O1 | – | inconclusive [inhibitor, single point]
45 | CC1CCc2cc(F)ccc2N1C(=O)CCC(=O)O (stereo not given) | inactive: -2.75% | –
46 | CCOc1ccc(-c2nc3n(c(=O)c2C#N)CCCS3)cc1 | – | inconclusive [inhibitor, full curve, poor fit]
47 | COC(=O)CSc1ccc(S(=O)(=O)N2CCOCC2)cc1[N+](=O)[O-] | inactive: 16.4% | –
48 | CCOC(=O)C(Oc1ccc2c(-c3ccccc3)cc(=O)oc2c1)c1ccccc1 (stereo not given) | – | inconclusive [inhibitor, single point]

Row | Structure (SMILES) | activity change, negative = inhibition | Potency
49 | CC(=NC(C)c1ccccc1)c1c(O)[nH]c(=O)[nH]c1=O (stereo not given) | inactive: 11.9% | –
50 | C/C(=N\NC(=O)c1c[nH]c2ccccc12)c1ccc(C)s1 | inactive: -2.52% | –
51 | CCCc1cc(=O)[nH]c(SCC(=O)N(CCOC)c2c(N)n(Cc3ccccc3)c(=O)[nH]c2=O)n1 | inactive: 30.3% | –
52 | Cc1cccc(-n2ncc3c2CCCC3NC(=O)CCN2CCCO2)c1C (stereo not given) | – | inconclusive [inhibitor, single point]
53 | Cc1ccc(Cn2ccc(=O)c(OCc3c(Cl)cccc3Cl)c2C)cc1 | – | inconclusive [inhibitor, single point]
54 | COCCN(C(=O)COC(=O)CCOc1ccccc1C)c1c(N)n(Cc2ccccc2)c(=O)[nH]c1=O | inactive: 20% | –
55 | CCN(CC)c1nc2c(c(=O)[nH]c(=O)n2C)n1CCCc1ccccc1 | inactive: -27.6% | –
56 | C/C(=N\OCC(=O)N/N=C/c1ccc(C)cc1O)c1cccs1 | – | active: 10 µM
57 | CCOc1ccccc1NC(=O)C1CCN(S(C)(=O)=O)CC1 | inactive: 2.42% | –
58 | O=C1NCC(Nc2ccc(Br)cc2)C(=O)N1 (stereo not given) | inactive: 10.1% | –
59 | C#CCn1c(=NC(=O)CN2C(=O)CCC2=O)sc2cccc(OC)c21 | inactive: -13.5% | –
60 | O=C(CCN1C(=O)C2C3C=CC(C4CC34)C2C1=O)Nc1ccc(Cl)cc1O (stereo not given) | – | inconclusive [inhibitor, single point]
61 | CC(C)=CCC/C(C)=C/CNC(=O)CC1C[C@H](C(=O)N2CCOCC2)[C@@]2(C)c3[nH]c4ccccc4c3CCN2C1=O (stereo not given in full) | – | inconclusive [inhibitor, partial curve]
62 | CCCOc1ccc(CNC(=O)c2ccc3c(c2)N(CC)CCS3)cc1 | – | inconclusive [inhibitor, single point]
63 | O=C(O)c1ccc2c(c1)N(Cc1ccccc1)C(=O)c1ccccc1S2=O (stereo not given) | inactive: 1.84% | –
64 | CCOc1nc(Nc2ccc(OC)c(Cl)c2)nc(N2CCN(c3ccc(OC)cc3)CC2)n1 | – | active: 10 µM
65 | CC(=O)c1ccc(-c2cccc(-c3cc(=O)oc4ccc(C(C)(C)C)cc34)c2)cc1 | – | inconclusive [inhibitor, partial curve]
66 | Nc1c(S(=O)(=O)c2cccs2)c2nc3ccccc3nc2n1Cc1ccc2c(c1)OCO2 | – | inconclusive [inhibitor, single point]
67 | C=CCNC(=O)c1scc2c1CCCC2 | – | inconclusive [inhibitor, partial curve]
68 | CC(=O)Nc1ccc(-c2csc(NNC(=O)c3ccc(C)cc3)n2)cc1 | inactive: -8.41% | –
69 | COc1cc(C(=O)NCCSc2ccc(Cl)cc2)cc(OC)c1OC | – | inconclusive [inhibitor, partial curve]
70 | O=C(CCc1ccc(S(=O)(=O)N2CCOCC2)cc1)OCC(=O)c1ccc(Br)cc1 | inactive: 8.2% | –
